# According to a collection of fitness landscapes (doi:10.1016/j.celrep.2020.107928):
# Whole data set: some 81,000 sequences, median “one-hybrid fitness for binding parS DNA” near -0.17, cut for the highest 2% near 0.51. The list shows a part of the results.
# B1: Caulobacter ParB omega fusion; a variant is named by its letters at X, in order, B8GW30 (parent)
# chain: MESVVVGEPGMSEGRRGLGRGLSALLGEVDAAPAQAPGEQLGGSREAPIEILQRNPDQPRRTFREEDLEDLSNSIREKGVLQPILVRPSPDTAGEYQIVAGERAWRAAQRAGLKTVPIMVRELDDLAVLEIGIIENVQRADLNVLEEALSYKVLMEKFERTQENIAQTIGKSXSHVANXMRLLXLPDEVQSYLVSGELTAXHARAIAAAADPVALAKQIIEGGLSVRETEALARKAPNLSAGKSKGGRPPRVKDTDTQALESDLSSVLGLDVSIDHRGSTGTLTITYATLEQLDDLCNRLTRGI
# Variants of: B1
# Assay: one-hybrid fitness for binding parS DNA (scaled: cognate 1, non-cognate 0); higher = stronger binding
# Details: with parS DNA site
# Method in brief: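 Fitness here means the log change in variant-to-wild-type read ratio between plasmids sequenced before and after selection. That scale was set so cognate equals 1 and non-cognate equals 0. The selection was a bacterial one-hybrid screen of Caulobacter ParB libraries, four specificity codons randomised, in E. coli USO carrying a HIS3 reporter with the site 19 bp from the promoter, grown 48 hours at 37°C on M9-minus-histidine with 0.1 mM IPTG and 5 mM 3-AT.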
row,Variant,one-hybrid fitness for binding parS DNA
1,DTFS,≤ 0.2
2,QSEW,≤ 0.2
3,HMTV,≤ 0.2
4,HVFC,≤ 0.2
5,NHLL,≤ 0.2
6,PCQN,≤ 0.2
7,DTDR,≤ 0.2
8,EMRR,≤ 0.2
9,KPVD,≤ 0.2
10,PGQD,≤ 0.2
11,DQWV,≤ 0.2
12,GWWT,≤ 0.2
13,AHYE,≤ 0.2
14,RSVA,0.515
15,SNPL,≤ 0.2
16,GVAP,≤ 0.2
17,INHS,≤ 0.2
18,LCPR,≤ 0.2
19,TEMF,≤ 0.2
20,CTSK,≤ 0.2
21,LGYE,≤ 0.2
22,SRMR,≤ 0.2
23,TSYH,≤ 0.2
24,KIRS,≤ 0.2

row,Variant,one-hybrid fitness for binding parS DNA
1,PGLN,≤ 0.2
2,QFVQ,≤ 0.2
3,PMCS,≤ 0.2
4,WSSA,≤ 0.2
5,QSNH,≤ 0.2
6,CGPA,≤ 0.2
7,WFSI,≤ 0.2
8,QTPS,≤ 0.2
9,KQQT,≤ 0.2
10,IQTA,≤ 0.2
11,FRSR,≤ 0.2
12,KDPV,≤ 0.2
13,EALY,≤ 0.2
14,NSEC,≤ 0.2
15,SVPN,≤ 0.2
16,ESGK,≤ 0.2
17,EAPK,≤ 0.2
18,CTYC,≤ 0.2
19,QCCS,≤ 0.2
20,FRVS,≤ 0.2
21,VQYS,≤ 0.2
22,EAKA,≤ 0.2
23,EMLW,≤ 0.2
24,INVG,≤ 0.2

row,Variant,one-hybrid fitness for binding parS DNA
1,VPSS,≤ 0.2
2,KGIE,≤ 0.2
3,LYRT,≤ 0.2
4,IRRN,≤ 0.2
5,FPPT,≤ 0.2
6,AELG,≤ 0.2
7,KKYG,≤ 0.2
8,RGWC,0.504
9,EIRT,≤ 0.2
10,QIQD,≤ 0.2
11,FWYL,≤ 0.2
12,GQPC,≤ 0.2
13,LVHR,≤ 0.2
14,QFLG,≤ 0.2
15,DRKR,≤ 0.2
16,SDLS,≤ 0.2
17,APNY,≤ 0.2
18,FAET,≤ 0.2
19,WMIC,≤ 0.2
20,RISP,0.209
21,LTSG,≤ 0.2
22,PHIA,≤ 0.2
23,IADT,≤ 0.2
24,HKST,≤ 0.2

row,Variant,one-hybrid fitness for binding parS DNA
1,PKWL,≤ 0.2
2,PFNL,≤ 0.2
3,APID,≤ 0.2
4,CHLG,≤ 0.2
5,THTV,≤ 0.2
6,PYLR,≤ 0.2
7,KRVW,≤ 0.2
8,TDVR,≤ 0.2
9,TENS,≤ 0.2
10,WSMC,≤ 0.2
11,NWLW,≤ 0.2
12,ENLY,≤ 0.2
13,CHTR,≤ 0.2
14,SSRA,≤ 0.2
15,HWRT,≤ 0.2
16,KMKR,≤ 0.2
17,YVNP,≤ 0.2
18,NDLE,≤ 0.2
19,QPSI,≤ 0.2
20,VPNN,≤ 0.2
21,MTSF,≤ 0.2
22,AVTT,≤ 0.2
23,MNTL,≤ 0.2
24,MFPT,≤ 0.2

row,Variant,one-hybrid fitness for binding parS DNA
1,NFES,≤ 0.2
2,LYSN,≤ 0.2
3,CMGC,≤ 0.2
4,ARWG,≤ 0.2
5,YRLS,≤ 0.2
6,GRTS,≤ 0.2
7,KENC,≤ 0.2
8,HKGH,≤ 0.2
9,HFLR,≤ 0.2
10,KRCI,≤ 0.2
11,ITAS,≤ 0.2
12,RVLQ,≤ 0.2
13,PDHE,≤ 0.2
14,DPGS,≤ 0.2
15,PTER,≤ 0.2
16,KFAS,≤ 0.2
17,MVLV,≤ 0.2
18,RKGI,≤ 0.2
19,PPPK,≤ 0.2
20,CSDS,≤ 0.2
21,CRLG,≤ 0.2
22,IPPS,≤ 0.2
23,TCVR,≤ 0.2
24,PDDL,≤ 0.2

row,Variant,one-hybrid fitness for binding parS DNA
1,PLKA,≤ 0.2
2,RCQH,0.25
3,SCIY,≤ 0.2
4,QPRC,≤ 0.2
5,LYYT,≤ 0.2
6,FDDT,≤ 0.2
7,CMAG,≤ 0.2
8,VKIR,≤ 0.2
9,HPKA,≤ 0.2
10,WRCS,≤ 0.2
11,PEAG,≤ 0.2
12,PQNM,≤ 0.2
13,YSHY,≤ 0.2
14,NVGN,≤ 0.2
15,GKPH,≤ 0.2
16,RRNM,0.656
17,VYPY,≤ 0.2
18,AESS,≤ 0.2
19,PGHY,≤ 0.2
20,NGPR,≤ 0.2
21,QNVW,≤ 0.2
22,KSRG,≤ 0.2
23,RNAA,0.456
24,PWYC,≤ 0.2

row,Variant,one-hybrid fitness for binding parS DNA
1,FGNR,≤ 0.2
2,KWYS,≤ 0.2
3,QWYM,≤ 0.2
4,TFGN,≤ 0.2
5,SNRK,≤ 0.2
6,WVQG,≤ 0.2
7,CHRG,≤ 0.2
8,VSNI,≤ 0.2
9,TVHR,≤ 0.2
10,PPHT,≤ 0.2
11,QRAA,≤ 0.2
12,QYWV,≤ 0.2
13,YMDR,≤ 0.2
14,PPRE,≤ 0.2
15,ESKT,≤ 0.2
16,YLMR,≤ 0.2
17,AVYK,≤ 0.2
18,AQLC,≤ 0.2
19,SPRG,≤ 0.2
20,RANN,0.434
21,VVKM,≤ 0.2
22,WNAS,≤ 0.2
23,TPVY,≤ 0.2
24,ADES,≤ 0.2

row,Variant,one-hybrid fitness for binding parS DNA
1,KVDS,≤ 0.2
2,PPIM,≤ 0.2
3,PAQL,≤ 0.2
4,MVHM,≤ 0.2
5,NGEW,≤ 0.2
6,LQIV,≤ 0.2
7,DTLD,≤ 0.2
8,RMLF,0.238
9,IAAA,≤ 0.2
10,VHSG,≤ 0.2
11,GAHD,≤ 0.2
12,LQCL,≤ 0.2
13,KIRR,≤ 0.2
14,QKLH,≤ 0.2
15,QNWE,≤ 0.2
16,RGKL,≤ 0.2
17,SFRE,≤ 0.2
18,PCQG,≤ 0.2
19,RAFI,≤ 0.2
20,QQPD,≤ 0.2
21,KVIA,≤ 0.2
22,QQNF,≤ 0.2
23,HFST,≤ 0.2
24,YPPI,≤ 0.2

row,Variant,one-hybrid fitness for binding parS DNA
1,HMQR,≤ 0.2
2,LSVC,≤ 0.2
3,CFNW,≤ 0.2
4,RVVT,0.795
5,SMEG,≤ 0.2
6,HVST,≤ 0.2
7,PNRT,≤ 0.2
8,HVSS,≤ 0.2
9,VWFG,≤ 0.2
10,YMIT,≤ 0.2
11,INNF,≤ 0.2
12,CPLP,≤ 0.2
13,TRVS,≤ 0.2
14,ELTV,≤ 0.2
15,YSRK,≤ 0.2
16,RSML,≤ 0.2
17,CVRL,≤ 0.2
18,PAII,≤ 0.2
19,QMTM,≤ 0.2
20,VTEF,≤ 0.2
21,GLGY,≤ 0.2
22,LISY,≤ 0.2
23,APEY,≤ 0.2
24,QQRY,≤ 0.2

row,Variant,one-hybrid fitness for binding parS DNA
1,QYLK,≤ 0.2
2,LSSN,≤ 0.2
3,DSQF,≤ 0.2
4,STAE,≤ 0.2
5,HLVR,≤ 0.2
6,RYHL,≤ 0.2
7,YFNC,≤ 0.2
8,NFAS,0.255
9,DPDR,≤ 0.2
10,LNNP,≤ 0.2
11,YYHM,≤ 0.2
12,HQCG,≤ 0.2
13,DFRS,≤ 0.2
14,TMHI,≤ 0.2
15,TCLW,≤ 0.2
16,AEKR,≤ 0.2
17,SWLM,≤ 0.2
18,NSAC,≤ 0.2
19,TTVQ,≤ 0.2
20,MVGT,≤ 0.2
21,AGAC,≤ 0.2
22,VLSK,≤ 0.2
23,VEGT,≤ 0.2
24,WMMT,≤ 0.2

row,Variant,one-hybrid fitness for binding parS DNA
1,GPVS,≤ 0.2
2,GYKD,≤ 0.2
3,LWIL,≤ 0.2
4,HTRT,≤ 0.2
5,FTTT,≤ 0.2
6,SIQS,≤ 0.2
7,FMKM,≤ 0.2
8,NWKS,≤ 0.2
9,DWTR,≤ 0.2
10,QEVN,≤ 0.2
11,DDQS,≤ 0.2
12,QWVG,≤ 0.2
13,PPLF,≤ 0.2
14,WFMS,≤ 0.2
15,PGVS,≤ 0.2
16,TSHM,≤ 0.2
17,EDYG,≤ 0.2
18,DLDT,≤ 0.2
19,VNVW,0.237
20,GVCD,≤ 0.2
21,GICT,≤ 0.2
22,ASGQ,≤ 0.2
23,IAWS,≤ 0.2
24,ILTL,≤ 0.2

row,Variant,one-hybrid fitness for binding parS DNA
1,HIGC,≤ 0.2
2,TYKP,≤ 0.2
3,RPIG,≤ 0.2
4,QIKK,≤ 0.2
5,AVTM,≤ 0.2
6,YWQR,≤ 0.2
7,RSIT,0.628
8,RLQK,≤ 0.2
9,QQKL,≤ 0.2
10,PIKI,≤ 0.2
11,SRDV,≤ 0.2
12,CAPR,≤ 0.2
13,KILN,≤ 0.2
14,RIPM,≤ 0.2
15,KQKM,≤ 0.2
16,QRMI,≤ 0.2
17,NCFR,≤ 0.2
18,QDFS,≤ 0.2
19,KQDR,≤ 0.2
20,SCTM,≤ 0.2
21,FGTY,≤ 0.2
22,GTHV,≤ 0.2
23,NGRC,≤ 0.2
24,LLAT,≤ 0.2

row,Variant,one-hybrid fitness for binding parS DNA
1,CNCG,≤ 0.2
2,REHV,≤ 0.2
3,GNAI,≤ 0.2
4,MKDS,≤ 0.2
5,PPMG,≤ 0.2
6,SDRQ,≤ 0.2
7,RFYI,≤ 0.2
8,LMRN,≤ 0.2
9,FFTF,≤ 0.2
10,DTKK,≤ 0.2
11,SPKT,≤ 0.2
12,TETR,≤ 0.2
13,DPSS,≤ 0.2
14,GAIG,≤ 0.2
15,RYLA,0.608
16,RTTP,≤ 0.2
17,DFTF,≤ 0.2
18,IYNQ,≤ 0.2
